# Experimental data taken from the supplement of paper PMC8728848.
# The list shows a part of the results.
# B1: ConA (Canavalia ensiformis), P02866 (protein)
# chain: MAISKKSSLFLPIFTFITMFLMVVNKVSSSTHETNALHFMFNQFSKDQKDLILQGDATTGTDGNLELTRVSSNGSPQGSSVGRALFYAPVHIWESSAVVASFEATFTFLIKSPDSHPADGIAFFISNIDSSIPSGSTGRLLGLFPDANVIRNSTTIDFNAAYNADTIVAVELDTYPNTDIGDPSYPHIGIDIKSVRSKKTAKWNMQNGKVGTAHIIYNSVDKRLSAVVSYPNADSATVSYDVDLDNVLPEWVRVGLSASTGLYKETNTILSWSFTSKLKSNEIPDIATVV
# Columns and labels:
# Assay in all cases: glycan array binding signal (z-score within array); higher = stronger binding
# Settings in all cases: glycan notation: IUPAC condensed, linker removed
# GalNAc(b1-4)Gal(b1-4)Glc = target: GalNAc(b1-4)Gal(b1-4)Glc
# Summary of the method: (§1)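 From the Consortium for Functional Glycomics database, 3228 arrays were curated, keeping only those whose protein sequence was available. Binding is given as a within-array Z-score averaged across arrays sharing a protein sequence and across linkers. Negative Z-scores can be read as non-binding.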
# GalNAc(b1-4)GlcNAc = target: GalNAc(b1-4)GlcNAc
# Summary of the method: as §1
# [1] = target: GalNAc(b1-4)GlcNAc(b1-2)Man(a1-3)[GalNAc(b1-4)GlcNAc(b1-2)Man(a1-6)]Man(b1-4)GlcNAc(b1-4)GlcNAc
# Summary of the method: as §1
# GalNAc(b1-6)GalNAc = target: GalNAc(b1-6)GalNAc
# Summary of the method: as §1
# Glc(a1-4)Glc = target: Glc(a1-4)Glc
# Summary of the method: as §1
# [2] = target: Glc(a1-4)Glc(a1-4)Glc(a1-4)Glc
# Summary of the method: as §1
# Glc(a1-6)Glc(a1-6)Glc = target: Glc(a1-6)Glc(a1-6)Glc
# Summary of the method: as §1
# [3] = target: Glc(a1-6)Glc(a1-6)Glc(a1-6)Glc
# Summary of the method: as §1
# Glc(b1-4)Glc = target: Glc(b1-4)Glc
# Summary of the method: as §1
# Glc(b1-6)Glc = target: Glc(b1-6)Glc
# Summary of the method: as §1
# GlcA(b1-3)Gal = target: GlcA(b1-3)Gal
# Summary of the method: as §1
# GlcA(b1-3)GlcNAc = target: GlcA(b1-3)GlcNAc
# Summary of the method: as §1
# GlcA(b1-6)Gal = target: GlcA(b1-6)Gal
# Summary of the method: as §1
# [4] = target: GlcNAc(a1-3)Gal(b1-4)GlcNAc
# Summary of the method: as §1
# [5] = target: GlcNAc(a1-4)Gal(b1-3)GlcNAc
# Summary of the method: as §1
# [6] = target: GlcNAc(a1-4)Gal(b1-4)GalNAc
# Summary of the method: as §1
# [7] = target: GlcNAc(a1-4)Gal(b1-4)GlcNAc
# Summary of the method: as §1
# [8] = target: GlcNAc(a1-4)Gal(b1-4)GlcNAc(b1-3)Gal(b1-4)Glc
# Summary of the method: as §1
# [9] = target: GlcNAc(a1-4)Gal(b1-4)GlcNAc(b1-3)Gal(b1-4)GlcNAc
# Summary of the method: as §1
# [10] = target: GlcNAc(a1-4)Gal(b1-4)GlcNAc(b1-3)Gal(b1-4)GlcNAc(b1-3)Gal(b1-4)GlcNAc
# Summary of the method: as §1
# [11] = target: GlcNAc(a1-4)Gal(b1-4)GlcNAc(b1-3)Gal(b1-4)[Fuc(a1-3)]GlcNAc(b1-3)Gal(b1-4)[Fuc(a1-3)]GlcNAc
# Summary of the method: as §1
# [12] = target: GlcNAc(a1-6)Gal(b1-4)GlcNAc
# Summary of the method: as §1
# [13] = target: GlcNAc(b1-2)Gal(b1-3)GalNAc
# Summary of the method: as §1
# [14] = target: GlcNAc(b1-2)Man(a1-3)[GlcNAc(b1-2)Man(a1-6)]Man(b1-4)GlcNAc(b1-4)GlcNAc
# Summary of the method: as §1
# [15] = target: GlcNAc(b1-2)Man(a1-3)[GlcNAc(b1-2)Man(a1-6)]Man(b1-4)GlcNAc(b1-4)[Fuc(a1-6)]GlcNAc
# Summary of the method: as §1
# [16] = target: GlcNAc(b1-2)Man(a1-3)[GlcNAc(b1-4)][GlcNAc(b1-2)Man(a1-6)]Man(b1-4)GlcNAc(b1-4)GlcNAc
# Summary of the method: as §1
# [17] = target: GlcNAc(b1-2)[GlcNAc(b1-4)]Man(a1-3)[GlcNAc(b1-2)Man(a1-6)]Man(b1-4)GlcNAc(b1-4)GlcNAc
# Summary of the method: as §1
# [18] = target: GlcNAc(b1-2)[GlcNAc(b1-4)]Man(a1-3)[GlcNAc(b1-4)][GlcNAc(b1-2)Man(a1-6)]Man(b1-4)GlcNAc(b1-4)GlcNAc
# Summary of the method: as §1
# [19] = target: GlcNAc(b1-2)[GlcNAc(b1-4)]Man(a1-3)[GlcNAc(b1-4)][GlcNAc(b1-2)[GlcNAc(b1-6)]Man(a1-6)]Man(b1-4)GlcNAc(b1-4)GlcNAc
# Summary of the method: as §1
# [20] = target: GlcNAc(b1-2)[GlcNAc(b1-6)]Man(a1-6)[GlcNAc(b1-2)Man(a1-3)]Man(b1-4)GlcNAc(b1-4)GlcNAc
# Summary of the method: as §1
# [21] = target: GlcNAc(b1-2)[GlcNAc(b1-6)]Man(a1-6)[GlcNAc(b1-2)Man(a1-3)][GlcNAc(b1-4)]Man(b1-4)GlcNAc(b1-4)GlcNAc
# Summary of the method: as §1
# GlcNAc(b1-3)Gal = target: GlcNAc(b1-3)Gal
# Summary of the method: as §1
# [22] = target: GlcNAc(b1-3)Gal(b1-3)GalNAc
# Summary of the method: as §1
# GlcNAc(b1-3)Gal(b1-4)Glc = target: GlcNAc(b1-3)Gal(b1-4)Glc
# Summary of the method: as §1
# [23] = target: GlcNAc(b1-3)Gal(b1-4)GlcNAc
# Summary of the method: as §1
# [24] = target: GlcNAc(b1-3)Gal(b1-4)GlcNAc(b1-3)Gal(b1-4)GlcNAc
# Summary of the method: as §1
# GlcNAc(b1-3)GalNAc = target: GlcNAc(b1-3)GalNAc
# Summary of the method: as §1
binder,measurement,setting,value
B1,glycan array binding signal (z-score),GalNAc(b1-4)Gal(b1-4)Glc,-0.193
same,glycan array binding signal (z-score),GalNAc(b1-4)GlcNAc,-0.264
same,glycan array binding signal (z-score),[1],-0.123
same,glycan array binding signal (z-score),GalNAc(b1-6)GalNAc,-0.234
same,glycan array binding signal (z-score),Glc(a1-4)Glc,0.407
same,glycan array binding signal (z-score),[2],-0.192
same,glycan array binding signal (z-score),Glc(a1-6)Glc(a1-6)Glc,0.334
same,glycan array binding signal (z-score),[3],-0.21
same,glycan array binding signal (z-score),Glc(b1-4)Glc,-0.158
same,glycan array binding signal (z-score),Glc(b1-6)Glc,-0.286
same,glycan array binding signal (z-score),GlcA(b1-3)Gal,-0.293
same,glycan array binding signal (z-score),GlcA(b1-3)GlcNAc,0.292
same,glycan array binding signal (z-score),GlcA(b1-6)Gal,-0.182
same,glycan array binding signal (z-score),[4],-0.258
same,glycan array binding signal (z-score),[5],-0.224
same,glycan array binding signal (z-score),[6],-0.232
same,glycan array binding signal (z-score),[7],-0.086
same,glycan array binding signal (z-score),[8],-0.219
same,glycan array binding signal (z-score),[9],-0.049
same,glycan array binding signal (z-score),[10],-0.156
same,glycan array binding signal (z-score),[11],0.053
same,glycan array binding signal (z-score),[12],-0.285
same,glycan array binding signal (z-score),[13],-0.286
same,glycan array binding signal (z-score),[14],1.61
same,glycan array binding signal (z-score),[15],0.102
same,glycan array binding signal (z-score),[16],-0.108
same,glycan array binding signal (z-score),[17],-0.175
same,glycan array binding signal (z-score),[18],-0.281
same,glycan array binding signal (z-score),[19],-0.227
same,glycan array binding signal (z-score),[20],-0.183
same,glycan array binding signal (z-score),[21],-0.159
same,glycan array binding signal (z-score),GlcNAc(b1-3)Gal,-0.268
same,glycan array binding signal (z-score),[22],-0.256
same,glycan array binding signal (z-score),GlcNAc(b1-3)Gal(b1-4)Glc,-0.273
same,glycan array binding signal (z-score),[23],-0.266
same,glycan array binding signal (z-score),[24],-0.275
same,glycan array binding signal (z-score),GlcNAc(b1-3)GalNAc,-0.295
